Measurements published in PMC6919601, “Identification of Plasmodium dipeptidyl aminopeptidase allosteric inhibitors by high throughput screening” (PLoS ONE, 2019).
Screen size: about 110,000 compounds; about 230 (0.21%) showed an effect of 50% or more. The list shows a part of the results.

Target: DPAP1 (Plasmodium falciparum, UniProt Q8IIJ9)
Test: primary screen, percent inhibition; read by cleavage of a fluorogenic dipeptide substrate; higher = more effect of the substance
Design: species or system P. falciparum D10 trophozoite lysates; single well
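Further: 30 min substrate incubation versus DMSO and 10 µM JCP410 controls.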

Sequence of DPAP1 (Q8IIJ9 whole entry, looked up): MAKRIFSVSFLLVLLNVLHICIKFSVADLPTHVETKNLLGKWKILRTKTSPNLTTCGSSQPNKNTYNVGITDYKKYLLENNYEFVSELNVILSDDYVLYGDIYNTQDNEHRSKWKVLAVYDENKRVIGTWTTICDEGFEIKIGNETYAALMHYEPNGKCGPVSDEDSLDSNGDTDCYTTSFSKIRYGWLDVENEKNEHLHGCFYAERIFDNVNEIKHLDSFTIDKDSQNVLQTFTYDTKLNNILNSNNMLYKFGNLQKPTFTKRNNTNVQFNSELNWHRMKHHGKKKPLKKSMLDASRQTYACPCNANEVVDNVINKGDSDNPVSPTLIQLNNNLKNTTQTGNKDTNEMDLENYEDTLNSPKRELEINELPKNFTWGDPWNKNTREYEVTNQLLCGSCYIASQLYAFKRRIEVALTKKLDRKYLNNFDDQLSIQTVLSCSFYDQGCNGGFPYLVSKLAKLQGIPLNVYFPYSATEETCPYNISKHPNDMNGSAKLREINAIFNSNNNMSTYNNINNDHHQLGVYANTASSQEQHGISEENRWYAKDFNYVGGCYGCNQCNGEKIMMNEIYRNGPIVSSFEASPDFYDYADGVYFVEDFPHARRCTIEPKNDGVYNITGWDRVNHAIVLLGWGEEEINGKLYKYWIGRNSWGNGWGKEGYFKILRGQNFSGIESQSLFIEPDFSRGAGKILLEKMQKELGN

SMILES	% Inhibition @ 10 uM [%]
COc1ccc(CN2CCN(Cc3ccc(SC)cc3)CC2)cc1	-0.725
COc1ccc(C2CC(=O)C3=C(C2)NC(=O)CC3c2ccc(O)cc2)cc1 (centres unmarked)	0.8
Clc1ccc(N2CCN(CC3CCCCC3)CC2)cc1	-1.64
Cc1ccc(CN2CCN(C(=S)NCC(=O)NCc3cccnc3)CC23CCCCC3)cc1	-1.21
CCOC(=O)N1CCC(NCCN2CCOCC2)CC1	0.565
CCCNC(=O)c1cc(-c2ccc3c(c2)OCO3)on1	-6.45
O=C(c1cc2cc(Cl)ccc2oc1=O)N1CCC(Cc2ccccc2)CC1	-2.79
Cc1cccc(Cn2nnc3c(O)nc(C4CCN(C(=O)c5ccccc5Cl)CC4)nc32)c1	3.81
CC1=C(C(=O)Nc2cccc(C)n2)C(c2ccsc2)C2=C(O)CCCC2=N1 (centres unmarked)	-4.4
CC(NC(=O)Cn1nnc(-c2ccccc2F)n1)c1ccccc1 (centres unmarked)	-1.24
O=C1CC(c2ccc(Cl)cc2)CC(=O)C1=CNCCc1ccccc1 (centres unmarked)	1.57
Cc1cc(C)c(-n2nnnc2SCC(=O)Nc2nccs2)c(C)c1	-1.24
C=CCNc1nc(Nc2cccc3ccccc23)nc(OC(C(F)(F)F)C(F)(F)F)n1	-1.76
N#CCNC(=O)C(CS(=O)(=O)Cc1ccccc1)CS(=O)(=O)Cc1ccccc1	-0.214
N#Cc1c(C(F)(F)F)cc(-c2cccs2)nc1SCc1ccncc1	57.7
C=CCN1C(=O)N/C(=C/c2ccc(-c3cccc(F)c3)o2)C1=O	-15.4
CC(C)(O)CC1[C@@]2(C)CCCC(C)(C)C2CC[C@@]1(C)O (some centres unmarked)	-1.15
CC(=O)OCC1C[C@@H]1c1ccccc1 (some centres unmarked)	1.41
COc1ccc(Cn2nnc3c(O)nc(C4CCN(S(=O)(=O)c5ccc(C)cc5)CC4)nc32)cc1	3.81
Brc1ccc(NCc2ccncc2)cc1	-0.197
Brc1ccccc1OCCCCn1ccnc1	-2.12
Cc1c(C(=O)NCCCOC(C)C)oc2c1-c1nn(Cc3cccc(Cl)c3)cc1CC2	16.2
CCOc1ccc(CCNC(=O)C2CCC(=O)N2C2CCCCC2)cc1OCC (centres unmarked)	-1.79
CC1C2CC(C(S(=O)(=O)N3CCOCC3)/C2=N/O)C1(C)C (centres unmarked)	-4.26
COc1ccc(C=C(C#N)C#N)cc1OC	3.16

SMILES	% Inhibition @ 10 uM [%]
CC(=O)NCCc1nc2ccccc2n1Cc1ccccc1C	-2.74
CC1CCN(S(=O)(=O)c2ccc3ncc(C(=O)NCc4ccccc4Cl)c(O)c3c2)CC1	-1.46
O=C(NC1CCCCCC1)c1c(O)nc2ccccc2c1O	-2.17
Cc1cc(C)c2c(N)c(C(=O)NCCc3ccccc3)sc2n1	33.6
COCC(C)NC(=O)c1cc(-c2ccc(OC)c(OC)c2)on1 (centres unmarked)	-7.85
CC(C)C[C@H](NC(=O)c1ccsc1)C(=O)NCC#N	0.174
Cc1ccc(C(=O)N/C(=C\c2ccco2)C(=O)N2CCN(Cc3ccccc3)CC2)cc1C	-0.941
CCCC(=O)N(c1ccc2oc(C)c(C(C)=O)c2c1)S(=O)(=O)c1ccc(OC)cc1	-4.53
CCCC(C)C(=O)Nc1cc(OC)ccc1OC (centres unmarked)	-8.26
C/C(Cl)=C/Cn1c(SCCc2ccccc2)nc2c1c(=O)[nH]c(=O)n2C	4.7
COc1cc(C2NCCc3cc(OC)c(OC)cc32)ccc1O (centres unmarked)	-5.5
COc1ccc(C(=O)NCCCCc2ccccc2)cc1	-12.4
N=C(NOC(=O)N1CCOCC1)c1cccnc1	-3.28
Cc1nn(-c2ccccc2)c(Cl)c1/C=C1/C(=N)N2C(c3ccccc3)=CSC2=NC1=O	4.74
O=C(CN(C1CCCCC1)S(=O)(=O)c1ccc(Br)cc1)N1CCCC1	-7
O=C(O)CCC1CCC(=O)N1 (centres unmarked)	3.38
Cc1cccnc1NC(=O)C1c2ccccc2C(=O)N(CC(C)C)C1c1cccs1 (centres unmarked)	1.69
CCOC(=O)NC1(C(F)(F)F)C(=O)Nc2c1c(=O)[nH]c(=O)n2CCc1ccccc1 (centres unmarked)	2.1
O=C(c1ccc(Cl)cc1Cl)N1CCN(C/C=C/c2ccccc2)CC1	-3.03
Clc1ccc(Cn2nnc(-c3ccccc3Cl)n2)c(Cl)c1	-3.14
COc1cc(OC)c(C(C)=O)c(OCc2ccccc2)c1Br	-0.0925
Cc1sc(NC(=O)c2ccccc2)c(CN2CC(C)OC(C)C2)c1C (centres unmarked)	-0.884
CSc1ccc(CCNC(=O)Cn2nc(C)c3c(C)n(-c4ccc(C)cc4)nc3c2=O)cc1	-3.43
Cc1ccc(C2=NC(=O)C(NC(=O)c3ccc(F)cc3)(C(F)(F)F)N2)cc1 (centres unmarked)	-0.891
CC(Oc1ccc(Cl)cc1Cl)C(=O)Nc1ccccc1C#N (centres unmarked)	2.76
